# Hit rate of the full screen: of about 310,000 compounds, about 14,000 (4.5%) showed an effect of 50% or more. The effect is printed as a negative number. The list shows a part of the results.
# Biological target: human ether-à-go-go-related gene (hERG) potassium channel (human, UniProt Q12809)
# Assay: primary screen, population patch clamp on CHO cells stably expressing hERG
# 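Further: peak tail current of the secondary pulse compared with the same well before compound.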
# human ether-à-go-go-related gene (hERG) potassium channel, sequence (Q12809 whole entry, looked up): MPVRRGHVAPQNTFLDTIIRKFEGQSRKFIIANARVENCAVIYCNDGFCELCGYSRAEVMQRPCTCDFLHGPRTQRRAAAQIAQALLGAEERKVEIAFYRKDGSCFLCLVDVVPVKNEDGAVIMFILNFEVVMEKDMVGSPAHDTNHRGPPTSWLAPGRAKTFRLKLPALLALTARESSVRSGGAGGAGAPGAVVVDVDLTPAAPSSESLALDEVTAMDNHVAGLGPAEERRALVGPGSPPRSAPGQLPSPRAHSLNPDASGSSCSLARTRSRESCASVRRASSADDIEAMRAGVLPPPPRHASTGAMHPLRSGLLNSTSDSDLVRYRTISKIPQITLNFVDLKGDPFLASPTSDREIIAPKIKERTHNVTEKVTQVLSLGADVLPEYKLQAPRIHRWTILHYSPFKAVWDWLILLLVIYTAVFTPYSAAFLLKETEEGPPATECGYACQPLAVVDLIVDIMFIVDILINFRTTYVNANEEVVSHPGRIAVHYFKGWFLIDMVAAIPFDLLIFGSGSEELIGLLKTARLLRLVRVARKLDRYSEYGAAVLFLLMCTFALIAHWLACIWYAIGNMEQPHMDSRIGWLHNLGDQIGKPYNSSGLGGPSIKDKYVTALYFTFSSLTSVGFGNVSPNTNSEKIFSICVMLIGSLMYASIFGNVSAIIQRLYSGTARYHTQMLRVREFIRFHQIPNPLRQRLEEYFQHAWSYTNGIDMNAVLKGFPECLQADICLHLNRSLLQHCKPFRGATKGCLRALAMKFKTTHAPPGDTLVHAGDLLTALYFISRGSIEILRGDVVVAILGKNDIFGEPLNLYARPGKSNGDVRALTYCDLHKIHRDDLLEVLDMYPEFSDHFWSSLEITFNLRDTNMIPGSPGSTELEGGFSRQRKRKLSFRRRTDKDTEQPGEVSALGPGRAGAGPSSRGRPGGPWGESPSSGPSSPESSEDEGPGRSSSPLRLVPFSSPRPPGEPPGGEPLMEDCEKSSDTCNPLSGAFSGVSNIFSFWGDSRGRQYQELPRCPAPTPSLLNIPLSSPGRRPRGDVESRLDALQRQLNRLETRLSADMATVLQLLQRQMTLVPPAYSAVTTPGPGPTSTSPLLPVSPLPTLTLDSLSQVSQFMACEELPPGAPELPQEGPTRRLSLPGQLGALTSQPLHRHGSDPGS
row,Structure (SMILES),"hERG current change (%, negative = inhibition) at 10uM"
1,O=C(COc1coc(CN2CCN(c3ccccc3)CC2)cc1=O)N1CCc2ccccc21,-18.2%
2,CCCN(CC1CC1)C(=O)COC(=O)c1oc2c(F)cccc2c1C,-52.8%
3,C/C(=N/NC(=O)C1CC1(c1ccccc1)c1ccccc1)c1cccs1 (centres unmarked),15.5%
4,O=C(Nc1cccc(S(=O)(=O)N2CCCCC2)c1)c1ccccn1,-9.89%
5,O=C(NCCCN1CCCC1=O)c1cc(COc2ccc(F)cc2F)on1,-8.12%
6,N#Cc1c(NCCO)nc(NCc2ccccc2)c2c1CCN(Cc1ccccc1)C2,-27.1%
7,CC(C)n1cc(C(=O)c2ccccc2O)cc(C#N)c1=O,18.1%
8,COc1ccc(-n2c(=S)[nH]c3cc(C(=O)Nc4cc(OC)c(OC)c(OC)c4)ccc3c2=O)c(OC)c1,21.7%
9,O=C(NCCc1ccccc1)C1CC1,24.2%
10,Cc1ccccc1CNC(=O)C(=O)NCC1OCCCN1S(=O)(=O)c1ccc(F)cc1C (centres unmarked),7.36%
11,Cc1ccc(CNC(=O)C2CCN(S(=O)(=O)c3c(C)noc3/C=C/c3ccco3)CC2)cc1,-19.7%
12,CCOC(=O)N1CCN(Cc2nc(CC3CC3)no2)CC1,7.64%
13,O=C(Nc1ccc(O)c2c(=O)cc(-c3ccccc3Cl)oc12)c1ccc(Cl)c(Cl)c1,27.7%
14,O=C(NCc1cn2ccsc2n1)c1cccs1,2.47%
15,C=CCn1c(SCc2nc3sc(C(=O)O)c(C)c3c(=O)[nH]2)nnc1-c1ccc(F)cc1,11.1%
16,O=C(CC1S/C(=N\S(=O)(=O)c2ccccc2)N(c2ccccc2)C1=O)Nc1ccc(F)cc1 (centres unmarked),-3.33%
17,CCOc1ccccc1NC(=O)COC(=O)C(CC)c1ccccc1 (centres unmarked),-21.3%
18,Cc1ccc(N2CN(S(=O)(=O)c3cccc([N+](=O)[O-])c3)c3nc4ccccc4nc32)cc1,1.25%
19,CNC(=O)/C(C#N)=C/c1cc(C)n(-c2ccc(N3CCOCC3)cc2)c1C,17%
20,O=C(OC(c1ccc(NS(=O)(=O)c2ccccc2)cc1)(C(F)(F)F)C(F)(F)F)c1ccccc1,-6.82%
21,CCn1c2ccccc2c2cc(NC(=O)CSc3nnc(-c4cccc(C)c4)o3)ccc21,9.86%
22,O=C(Nc1cccc(Br)c1)c1cccc(OC(=S)N2CCOCC2)c1,-14.5%

row,Structure (SMILES),"hERG current change (%, negative = inhibition) at 10uM"
1,CCCC(=O)C1C(=O)CC(CC(C)SCC)CC1=O (centres unmarked),-1.26%
2,Cc1ccc(NC(=O)CCCNC(=O)c2ccc(Cl)cc2)c(O)c1,0.253%
3,O=C(O)COc1ccc2occ(C(=O)c3ccccc3)c2c1,-8.43%
4,Cc1n[nH]c(=O)c2c(NC(=O)COC(=O)/C=C/c3cccc(C(F)(F)F)c3)oc(C)c12,-16.7%
5,CCCCN(C)CCNC(=O)C(NC(=O)C1CCC(C)CC1)C(C)C (centres unmarked),2.79%
6,NC(N)=NC(N)=Nc1ccc(O)cc1,20.8%
7,CC(CCc1ccco1)N(C)S(=O)(=O)c1csc(C(N)=O)c1 (centres unmarked),-17.1%
8,CNC(=S)N/N=C/c1ccc(-c2ccc(Cl)c([N+](=O)[O-])c2)o1,12%
9,Cc1ccc(-n2c(C)nnc2SCC(=O)Nc2ccccc2)cc1,-37.5%
10,CCn1nnnc1NCc1ccc(OCc2c(F)cccc2Cl)c(OC)c1,18.2%
11,O=C(NCCCCNC(=O)C(F)(F)F)C(F)(F)F,3.9%
12,O=C(NC(=S)N(CC1CCC1)CC1CCCO1)c1cccc([N+](=O)[O-])c1 (centres unmarked),-21.1%
13,CC1(C)C(=O)NC(=O)N1Cc1ccccc1,7.33%
14,CCCCC1CCc2[nH]nc(C(=O)O)c2C1 (centres unmarked),13.1%
15,CN(Cc1cnn(Cc2ccccc2)c1)C(=O)CN=C1NS(=O)(=O)c2ccccc21,-3.51%
16,CC(=O)c1ccc(NC(=O)c2cccc(S(=O)(=O)N3CCN(C)CC3)c2)cc1,-3.66%
17,CCOC(=O)c1cnc2c(C)cccc2c1NCCc1ccc(OC)c(OC)c1,-66.9%
18,O=C(O)c1cc(NC(=O)c2cccc(F)c2)cc(NC(=O)c2cccc(F)c2)c1,15.4%
19,CCOC(=O)N1CCN(C(=O)CN(c2cccc(C)c2)S(=O)(=O)c2ccccc2)CC1,-19.6%
20,COc1ccc(C(=O)Nc2ccc(Cl)cn2)cc1Cl,1.9%
21,CCOC(=O)c1ccc(NS(=O)(=O)c2cccc3nsnc23)cc1,-14.8%
22,CC(=O)Nc1cc(NC(C)=O)cc(C(=O)N2CCCC3CCCCC32)c1 (centres unmarked),5.24%

row,Structure (SMILES),"hERG current change (%, negative = inhibition) at 10uM"
1,Cc1ccc(S(=O)(=O)N2CCCC2C(=O)NCc2ccccc2F)cc1 (centres unmarked),12.4%
2,Cc1c(Cl)cccc1NC(=O)Cn1c(CCC(=O)O)ccc1-c1ccc(Cl)cc1,6.75%
3,O=C(COc1ccc2ccccc2c1)N1CCCC1,-13.3%
4,N#CCCN(Cc1cccnc1)C(=O)c1sc2cc(F)ccc2c1Cl,-15.7%
5,COc1ccc(S(=O)(=O)Nc2ccc3oc(C)c(C(=O)O)c3c2)cc1,21.3%
6,O=C(Nc1cccc(-c2nc3ccccc3o2)c1)c1cccnc1,-47.7%
7,O=C(c1ccco1)N1CCN(C(=O)c2cc3c(s2)-c2ccccc2OC3)CC1,-63.9%
8,O=C(c1cc(-c2cccs2)on1)N1CCN(C(c2ccccc2)c2ccccc2)CC1,3.95%
9,CCc1noc(C)c1C(=O)N1CCSC1=Nc1cccc(Cl)c1C,9.77%
10,CC(C)(C)c1ccccc1OCC(=O)Nc1ccccc1C(=O)NCc1cccnc1,-3.52%
11,CN(C)C=O.Cc1cc(-c2ccco2)c(C#N)c2nc3ccccc3n12,-11.4%
12,C=CCNC(=O)c1oc2ccc(S(=O)(=O)N3CCC4(CC3)OCCO4)cc2c1C,0.761%
13,O=S(=O)(NCC1CCCO1)c1ccccc1 (centres unmarked),15.6%
14,CCOC(=O)c1ccccc1NC(=O)CSc1ccc(-c2ccccn2)nn1,-23.4%
15,O=C(Nc1ccc(S(=O)(=O)Nc2ccccc2)cc1)c1ccc(CN2CCOCC2)cc1,-18.4%
16,COCCn1cnc2c(c1=O)c1nc3ccccc3nc1n2/N=C/c1ccco1,-7.29%
17,COc1ccc(CNC(=O)CCCNC(=O)c2ccc(Cl)cc2)cc1OC,-1.44%
18,O=C(NCc1ccc(F)cc1)c1cc(-c2cccs2)on1,-2.5%
19,Cc1ccc(NC(=O)c2oc3ccc(S(=O)(=O)N4CCC5(CC4)OCCO5)cc3c2C)cc1C,0.726%
20,Cc1cc(C)cc(-c2nnc(SCC(=O)N3CCN(C(=O)c4ccco4)CC3)o2)c1,-43.3%
21,Cc1ccc(C(=O)NNC(=O)c2ccc(NS(=O)(=O)c3cccs3)cc2)s1,16.9%
22,COc1ccc(C(CNC(=O)c2ccc(C)c(S(=O)(=O)N3CCCCC3)c2)N(C)C)cc1OC (centres unmarked),7.1%

row,Structure (SMILES),"hERG current change (%, negative = inhibition) at 10uM"
1,O=S(=O)(NC1CCCCCCC1)c1ccccc1F,-28.5%
2,COc1ccc(NC(=O)Cn2nc([N+](=O)[O-])c(Cl)c2C)cc1OC,-18.9%
3,O=C(CSc1nnc(CN2CCCCC2)n1-c1ccccc1)c1ccc2c(c1)OCO2,-25.4%
4,Cl.O=C(CN1CCCC1)NCc1ccccc1,15.6%
5,COCn1ccnc1C(O)(c1ccc(OC)cc1)c1ccc(OC)cc1,9.69%
6,Cc1c(C)n(Cc2ccc(F)cc2)c2ccc(C(=O)NCCN3CCOCC3)cc12,-19.2%
7,CC(C)C(C)NC(=O)COc1ccc(-c2ccccc2)cc1 (centres unmarked),3.45%
8,CCc1cccc(NC(=O)CCSCCC(=O)Nc2cccc(CC)c2)c1,-9.75%
9,O=C1NC(Cc2ccccc2)c2nc3ccc(Cl)cc3c(=O)n2-c2ccc(Cl)cc21 (centres unmarked),10.7%
10,CCN(c1ccccc1C(=O)O)S(=O)(=O)c1ccc2[nH]c(=O)[nH]c2c1,16.1%
11,CCc1cc(-c2n[nH]c(=S)n2CC)cs1,17.7%
12,CCc1c(C)sc(NC(=O)c2ccco2)c1C(=O)N1CCOCC1,12.5%
13,C=CCN=C1S/C(=C/c2ccc([N+](=O)[O-])cc2)C(=O)N1CC=C,-0.191%
14,O=S(=O)(c1cccc(Br)c1)N1CCN(C(=S)NCC2CCCO2)CC1 (centres unmarked),11.6%
15,O=C(Nc1ccccc1F)c1cc(C(=O)Nc2ccccc2F)cc([N+](=O)[O-])c1,9.4%
16,COc1nc(NCc2ccc(Cl)cc2)nc(OC)n1,4.9%
17,CCOc1ccc(-c2c(C)n([O-])c3c([n+]2=O)CCCCC3)cc1,17.4%
18,CCC(C)n1c(SCC(=O)Nc2ccccc2C(F)(F)F)nc2ccsc2c1=O (centres unmarked),-14%
19,CCc1ccccc1NC(=O)c1cc(S(=O)(=O)N2CCc3ccccc32)cn1C,0.0433%
20,CCCC(NC(=O)CCc1c(C)c2cc3c4c(oc3c(C)c2oc1=O)CCCC4)C(=O)O (centres unmarked),10.9%
